Data on one molecule can be found in US20200079850A1 (SUTRO BIOPHARMA, published 2020).

One may read the IC50 as the concentration that gives 50% inhibition. As usually defined, the Kd is the constant that tells how readily two partners part at equilibrium. A high value points to a looser complex. Broadly, the koff is the first-order rate constant of dissociation. Lower therefore signals a long-lived complex. As usually defined, the kon is the rate constant with which the complex forms. High values mean fast association, low ones slow association.

The target in test [1] is LAG3 (residues 1-477) C-terminally fused to the beta-galactosidase ProLink (PK) fragment, on U2OS cells (human). In words: cell-based or functional assay.
The target in test [2] is PD-1 (residues 1-199) C-terminally fused to the beta-galactosidase enzyme acceptor (EA) fragment, on U2OS … (human, UniProt Q15116 partial chain). In words: cell-based or functional assay.
The target of test [3] is T1, recombinant human LAG3 protein (rhLAG3), HIS-tagged (ACRO) or biotinylated (R&D Cat #2319-C3) (human, UniProt P18627 23-450, biotinylated in part of the assays).
T1 sequence: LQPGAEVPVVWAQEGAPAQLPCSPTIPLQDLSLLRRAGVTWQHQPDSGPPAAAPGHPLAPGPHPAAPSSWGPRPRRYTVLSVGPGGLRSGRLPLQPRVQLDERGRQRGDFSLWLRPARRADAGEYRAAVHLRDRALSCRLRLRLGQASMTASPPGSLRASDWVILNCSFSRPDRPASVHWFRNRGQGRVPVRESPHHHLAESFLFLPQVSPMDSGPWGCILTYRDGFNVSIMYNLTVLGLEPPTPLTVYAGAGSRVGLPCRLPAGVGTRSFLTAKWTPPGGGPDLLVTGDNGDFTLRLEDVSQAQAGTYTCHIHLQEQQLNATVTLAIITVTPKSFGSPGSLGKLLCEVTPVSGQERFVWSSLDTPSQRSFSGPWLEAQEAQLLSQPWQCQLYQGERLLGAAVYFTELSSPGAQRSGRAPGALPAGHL
In words: flow cytometry competition, biotinylated rhLAG3 binding to Daudi cells; competitor MHCII. Here is the method:
Daudi cells expressing Major Histocompatibility Class II (MHCII) molecules, the natural ligand for LAG3, were used to measure the ability of anti-PD1/LAG3 bi-specific antibody constructs to block biotinylated (ThermoFisher, Cat #21329) recombinant human LAG3 protein (rhLAG3, R&D Cat #2319-C3) binding. Cells were seeded at 100,000 cells/well in 100 μL of FACS buffer in 96-well polypropylene plates. The cells were centrifuged and resuspended with test antibodies (2× concentration) diluted in FACS buffer, immediately followed by equal volume of biotinylated rhLAG3 (added at 2× concentration; 7.5 μg/mL final). Cells were incubated on ice for 1 hour and washed twice. Biotinylated rhLAG3 binding was detected with 2 μg/mL R-Phycoerythrin-conjugated Streptavidin (eBioscience) for 30 minutes. Cells were washed twice with FACS buffer, fixed in 4% paraformaldehyde in PBS for 20 mins on ice in the dark, washed twice with FACS buffer, and analyzed using the BD LSR II Flow Cytometer. Data were analyzed using FlowJo (FlowJo, LLC; Ashland, Oreg.) to determine mean fluorescence intensities. Prism 6 software was used to create one site, specific binding with Hill slope curves (Log transform) to determine IC₅₀ values.

In test [4] the target is T2, hLAG3 (Acro Biosystems), SPR analyte (human, UniProt P18627 23-450).
T2 construct: also called human LAG3 kinetics
T2 sequence: T1 sequence
Put plainly: SPR (Biacore), antibody captured by anti-Fc, hLAG3 as analyte, 25 C. Here is the method:
Anti-Fc polyclonal antibodies were immobilized onto a CMS chip (GE Life Sciences) using amine coupling chemistry (from Amine Coupling Kit, GE Life Sciences). The immobilization steps were carried out at a flow rate of 25 μl/min in 1×HBS-EP+buffer (GE Life Sciences; 10× Stock diluted before use). The sensor surfaces were activated for 7 min with a mixture of NHS (0.05 M) and EDC (0.2 M). The Anti-Fc antibodies were injected over all 4 flow cells at a concentration of 25 ug/ml in 10 mM sodium acetate, pH 4.5, for 7 min. Ethanolamine (1 M, pH 8.5) was injected for 7 min to block any remaining activated groups. An average of 12,000 response units (RU) of capture antibody was immobilized on each flow cell.
Kinetic binding experiments were performed at 25° C. using 1×HBS-EP+buffer. Test and control antibodies were injected over the anti-Fc surface at concentrations of 5-10 μg/mL for 12 seconds at a flow rate of 10 μl/min on flow cells 2, 3 and 4, followed by a buffer wash for 30 seconds at the same flow rate. Kinetic characterization of antibody samples was carried out with a dilution series of antigen and 1 injection of 0 nM antigen. After capturing ligand (antibody) on the anti-Fc surface, the analyte (hPD1 or hLAG3, Acro Biosystems, Newark, Del.) was bound at 100, 25, 6.25 and 0 nM for 180 seconds, followed by a 450 second dissociation phase at a flow rate of 50 μl/min. Between each ligand capture and analyte binding cycle, regeneration was carried out using 2 injections of 10 mM Glycine pH 2.0 for 30 seconds at 30 μL/min, followed by a 30 second buffer wash step.
The data was fit with the Biacore T200 Evaluation software, using a 1:1 Langmuir binding model. KD (affinity, nM) was determined as a ratio of the kinetic rate constants calculated from the fits of the association and dissociation phases.

The target of test [5] is T3, rabbit Fc-tagged recombinant human PD1 (rhPD1-rabbit Fc) (human, UniProt Q15116 partial chain, limits assumed).
T3 construct: also called recombinant human PD-1 protein
T3 sequence (Q15116 25-167 limits assumed): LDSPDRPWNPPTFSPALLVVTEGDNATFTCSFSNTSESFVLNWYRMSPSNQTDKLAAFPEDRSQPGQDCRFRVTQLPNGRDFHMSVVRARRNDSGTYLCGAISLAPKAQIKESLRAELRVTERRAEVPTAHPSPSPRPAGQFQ
In words: flow cytometry competition, rhPD1-rabbit Fc binding to CHO-PD-L1 cells; competitor PD-L1. Here is the method:
CHO-k cells stably expressing human PD-L1 or PD-L2 were used to measure the ability of anti-PD1/LAG3 bi-specific antibody constructs to block rabbit Fc-tagged recombinant human PD1 (rhPD1-rabbit Fc) protein binding. Cells were seeded at 100,000 cells/well in 100 μL of FACS buffer in 96-well polypropylene plates. The cells were centrifuged and resuspended with test antibodies (2× concentration) diluted in FACS buffer, immediately followed by equal volume of rhPD1-rabbit Fc (added at 2× concentration; 0.2 ng/mL and 0.1 ng/mL final for PD-L1 and PD-L2, respectively). Cells were incubated on ice for 1 hour and washed twice. rhPD1-rabbit Fc binding on CHO-human PD-L1 or PD-L2 cells was detected with R-Phycoerythrin AffiniPure F(ab′)₂ Fragment Goat Anti-Rabbit IgG (H+L) (1:200 dilution, Jackson ImmunoResearch) for 30 minutes. The cells were washed twice with FACS buffer, fixed in 4% paraformaldehyde in PBS for 20 mins on ice in the dark, washed twice with FACS buffer, and analyzed using the BD LSR II Flow Cytometer. Data were analyzed using FlowJo (FlowJo, LLC; Ashland, Oreg.) to determine mean fluorescence intensities. Prism 6 software was used to create one site, specific binding with Hill slope curves (Log transform) to determine IC₅₀ values.

B1: PD-1/LAG3 Bi-specific Construct A: aPD1 1353-G10 scFv_zwB × aLAG3 Fab_zwA (bispecific antibody, human IgG1, kappa)
scFv: MEVQLVQSGAEVKKPGASVKVSCKASGYRFPHYGISWVRQAPGQGLEWMGWISAYNGNTNYAQKLQGRVTMTTDTSTNTAYMELRSLRSDDTAVYYCARDVDYGTGSGYWGQGTLVTVSSGGGGSGGGGSGGGGSSYELTQPPSVSVSPGQTARITCSGDALPKQYAYWYQQKPGQAPVMVIYKDTERPSGIPERFSGSSSGTKVTLTISGVQAEDEADYYCQSADNSITYRVFGGGTKVTVLAAGSDQ[no letters for human IgG1 Fc with changes]
heavy: MQVQLVESGGGVVQPGRSLRLSCAASGFTFSSYGMHWVRQAPGKGLEWVAVIWYDGSYKYYADSVKGRFTISRDNSKNTLYLQMNSLRAEDTAVYYCAREEAPENWDYALDVWGQGTTVTVSSASTKGPSVFPLAPSSKSTSGGTAALGCLVKDYFPEPVTVSWNSGALTSGVHTFPAVLQSSGLYSLSSVVTVPSSSLGTQTYICNVNHKPSNTKVDKKVEPKSCDKTHTCPPCPAPELLGGPSVFLFPPKPKDTLMISRTPEVTCVVVDVSHEDPEVKFNWYVDGVEVHNAKTKPREEQYNSTYRVVSVLTVLHQDWLNGKEYKCKVSNKALPAPIEKTISKAKGQPREPQVYVYPPSREEMTKNQVSLTCLVKGFYPSDIAVEWESNGQPENNYKTTPPVLDSDGSFALVSKLTVDKSRWQQGNVFSCSVMHEALHNHYTQKSLSLSPGK
light: [no letters for about 100 residues][no letters for about 120 residues]
notes: also called 1449-G09.2-Fab-zwA
Take B1: the “EC50 of beta-galactosidase enzyme-fragment complementation (RLU) on U2OS cells co-expressing PD-1-EA and LAG3-PK; PD-1/LAG3 cell bridging, needs both targets” value in test [1] was found to be 0.14 nM. Further, the “EC50 of beta-galactosidase enzyme-fragment complementation (RLU) on U2OS cells co-expressing PD-1-EA and LAG3-PK; PD-1/LAG3 cell bridging, needs both targets” value in test [2] amounted to 0.14 nM. Also, in test [3], the IC50 is 17 nM. For the same molecule, in test [4], the Kd turned out to be 0.0845 nM, the koff worked out at 0.000102 s⁻¹ and the association rate constant (kon) was determined as 1.21e+06 M⁻¹ s⁻¹. In addition, the IC50 in test [5] turned out to be 118 nM.
